Results taken from article PMC6919601, “Identification of Plasmodium dipeptidyl aminopeptidase allosteric inhibitors by high throughput screening” (PLoS ONE, 2019).
About 230 (0.21%) of roughly 110,000 compounds showed an effect of 50% or more. The list shows a part of the results.

Biological target: DPAP1 (Plasmodium falciparum, UniProt Q8IIJ9)
Test: primary screen, percent inhibition; read by cleavage of a fluorogenic dipeptide substrate; higher = more effect of the substance
Design: species or system P. falciparum D10 trophozoite lysates; single well
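Note: 30 min substrate incubation versus DMSO and 10 µM JCP410 controls.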

Chain of DPAP1 (Q8IIJ9 whole entry, looked up): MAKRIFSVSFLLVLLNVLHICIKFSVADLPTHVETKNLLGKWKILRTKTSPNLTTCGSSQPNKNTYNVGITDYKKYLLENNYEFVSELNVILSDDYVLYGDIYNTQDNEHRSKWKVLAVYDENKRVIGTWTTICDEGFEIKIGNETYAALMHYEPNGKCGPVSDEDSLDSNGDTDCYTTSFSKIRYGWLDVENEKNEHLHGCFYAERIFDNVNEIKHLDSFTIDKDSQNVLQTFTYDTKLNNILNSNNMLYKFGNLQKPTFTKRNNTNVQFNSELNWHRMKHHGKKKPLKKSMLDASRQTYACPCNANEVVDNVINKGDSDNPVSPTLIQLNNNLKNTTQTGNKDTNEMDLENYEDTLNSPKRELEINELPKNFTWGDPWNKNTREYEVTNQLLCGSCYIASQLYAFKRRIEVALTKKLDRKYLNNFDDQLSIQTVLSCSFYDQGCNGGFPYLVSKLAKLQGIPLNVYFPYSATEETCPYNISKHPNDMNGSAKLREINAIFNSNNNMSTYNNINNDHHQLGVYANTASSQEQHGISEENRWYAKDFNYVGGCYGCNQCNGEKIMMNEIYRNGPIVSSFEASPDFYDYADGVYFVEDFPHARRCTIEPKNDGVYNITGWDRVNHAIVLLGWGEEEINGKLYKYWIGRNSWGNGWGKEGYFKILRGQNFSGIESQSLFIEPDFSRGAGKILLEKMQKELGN

Row | SMILES | % Inhibition @ 10 uM
1 | COc1ccc(N2CCN(C(=O)CN(c3cc(Cl)cc(Cl)c3)S(C)(=O)=O)CC2)cc1 | 4.88%
2 | Cc1c(C(=O)O)oc2ccc(S(=O)(=O)NCc3ccc4c(c3)OCO4)cc12 | 1.16%
3 | Cc1nn(C(C)C(=O)NCc2ccc(OC(C)C)cc2)c(=O)c2nn(-c3ccccc3)c(C)c12 (stereo not shown) | 3.16%
4 | NC1=C(c2ccccc2)S(=O)(=O)c2cc(OCC(F)(F)F)ccc21 | -4.49%
5 | Cc1sc(C(=O)O)c(C)c1-c1c(C)sc(C(=O)O)c1C | -12.9%
6 | CC(C)CSc1nc(O)c2cnn(-c3ccccc3)c2n1 | -1.76%
7 | COc1ccc(OCC(=O)Nc2cccc3cccnc23)cc1 | -5.92%
8 | O=C(O)CSc1cc(C(=O)O)ccc1[N+](=O)[O-] | -5.28%
9 | CCn1ncc(Cl)c1C(=O)NC(C)C1CC2CCC1C2 (stereo not shown) | 0.673%
10 | N#CC1=C(N)Oc2c(c(O)nc3ccccc23)C1c1ccc(Cl)cc1Cl (stereo not shown) | 19.3%
11 | CCN1CCN(C(=O)CS(=O)Cc2nc(-c3cccc(C)c3)oc2C)CC1 (stereo not shown) | 3.99%
12 | CCc1c(C)sc(NC(=O)c2cc(-c3cccc(OC)c3)on2)c1C#N | -1.28%
13 | COc1ccc(N2C(=O)CC(N3CCN(C(=O)CN4CCCC4)CC3)C2=O)cc1 (stereo not shown) | -2.74%
14 | CNC(=O)C1=C(C)N=C(S)NC1c1ccc(OCC(C)C)cc1 (stereo not shown) | -5.25%
15 | Cc1ccc(S(=O)(=O)Cc2nc(-c3ccc(C(=O)NCc4ccc(C)o4)cc3)oc2C)cc1 | -0.416%
16 | CCCCCCc1c(O)nc(S)nc1O | 22.8%
17 | O=C(NCc1ccccc1)c1cc2n(n1)C(C(F)(F)F)CC(c1ccccc1)N2 (stereo not shown) | -2.85%
18 | Cc1cccc(OCC(O)Cn2c(NCCCn3ccnc3)nc3c2c(=O)[nH]c(=O)n3C)c1 (stereo not shown) | 2.31%
19 | Oc1c(C(c2ccccn2)N2CCN(c3ccccn3)CC2)ccc2cccnc12 (stereo not shown) | 2.4%
20 | CSc1cccc(NC(=O)c2ccc(Cl)cc2Cl)c1 | -7.4%
21 | Cc1ccc(C)c(Cn2c(=O)ccn(CCOc3ccc(Cl)cc3)c2=O)c1 | -1.85%
22 | COc1ccccc1NC1=C(Cl)C(=O)N(Cc2ccccc2)C1=O | 1.08%
23 | COc1ccccc1N1CCN(C(=O)c2cccc([N+](=O)[O-])c2)CC1 | 1.55%
24 | Cc1ccc(S(=O)(=O)NC2=NCN(CC(=O)O)CN2)cc1 | 1.26%
25 | NS(=O)(=O)c1ccc(CC/N=C2/C=C(O)CC(c3ccco3)C2)cc1 (stereo not shown) | 0.777%
26 | Cc1cc(=O)n2nc(N3CCCC(C(=O)N4CCN(C)CC4)C3)sc2n1 (stereo not shown) | 1.38%

Row | SMILES | % Inhibition @ 10 uM
27 | O=S(=O)(NCC1CCCO1)c1ccc2[nH]c3c(c2c1)CCCCC3 (stereo not shown) | 5.66%
28 | CC1CCc2c(C(=O)NCCc3ccc(Cl)cc3)csc2C1 (stereo not shown) | -1.44%
29 | Cc1noc2ncnc(NC3CCCCC3)c12 | -9.36%
30 | O=C(O)c1nccnc1C(=O)Nc1cccc(O)c1 | -5.9%
31 | Cc1ccccc1NC(=O)c1nccnc1C(=O)O | -2.18%
32 | CCCCC(=O)Nc1ccc(NC(=O)C(C)C)c(OC)c1 | 1.37%
33 | O=C(Nc1ccccn1)C1OCCc2ccccc21 (stereo not shown) | -0.45%
34 | Cc1ccc2nsnc2c1S(=O)(=O)NCc1ccncc1 | 2.18%
35 | CCc1cccc2c(C#N)cn(CC(=O)N3CCOCC3)c12 | 3.19%
36 | COCCNC(=O)c1cccc2c1-c1ccccc1C2=O | -4.51%
37 | CC(CN1CCN(C)CC1)c1ccccc1 (stereo not shown) | -1.78%
38 | COc1cc(C(=O)N(Cc2ccc(Cl)cc2)Cc2ccco2)cc(OC)c1OC | -4.02%
39 | Cc1nc2ccccc2c2oc(C(=O)NCCN3CCCCC3C)cc12 (stereo not shown) | -9.07%
40 | O=C(CCn1cnnn1)Nc1ncccn1 | 5.93%
41 | CC(C)c1ccc(N2CC(C(=O)Nc3ccc(Br)cc3)CC2=O)cc1 (stereo not shown) | 3.32%
42 | O=C1c2ccc(-c3ccc4c(c3)C(=O)N(CCO)C4=O)cc2C(=O)N1CCO | 1.63%
43 | Cc1noc(C(=O)N2CCN(C(c3ccccc3)c3ccccc3)CC2)c1Cl | -0.0115%
44 | CCCOc1ccc(-c2ccc(C#N)cc2)cc1 | 1.41%
45 | CC1CCc2c(sc(N)c2C(=O)OC(C)C)C1 (stereo not shown) | 30.4%
46 | N#CC1=C(N)SC2c3ccccc3CCC12 (stereo not shown) | 10.3%
47 | COc1ccc(C(=O)N(Cc2ccc(C)o2)C2CCS(=O)(=O)C2)cc1Cl (stereo not shown) | -1.11%
48 | COc1ccc(-c2noc(N3CCCC(C(=O)N4CCCCCC4)C3)n2)cc1 (stereo not shown) | -0.431%
49 | COc1cc(CN2CCCC(O)C2)cc(OC)c1 (stereo not shown) | 0.829%
50 | c1ccc(CC2=NNC(c3ccccc3)S2)cc1 (stereo not shown) | 3.32%
51 | COc1ccc(S(=O)(=O)N2CCC(NC(=O)NCc3ccc(C)cc3)CC2)cc1 | 0.425%
52 | COc1ccccc1CNc1nc2ccccc2c2nc(CCn3nc(C)cc3C)nn12 | -2.42%

Row | SMILES | % Inhibition @ 10 uM
53 | Oc1c2c(nc3cc(-c4ccc(-c5ccccc5)cc4)nn13)CCC2 | -9.63%
54 | N#CCNC(=O)[C@H](CS(=O)(=O)Cc1ccccc1)NC(=O)c1ccc(O)cc1 | 3.1%
55 | C/C(=N\Cc1ccco1)c1c(C(F)(F)F)nn(-c2nc3ccccc3s2)c1O | -1.06%
56 | Cc1cc(C)n2nc(SCC(=O)Nc3ccc(Cl)cc3)nc2n1 | -6.83%
57 | Oc1cc(O)c2sc3nc(-c4ccncc4)ccc3c2n1 | 3.39%
58 | CC(=O)c1nn(-c2ccccc2)cc1C(=O)c1ccc(C)cc1 | 3.69%
59 | COc1cccc(/C=C2/SC(=O)N(CC(=O)N3CCc4ccccc4C3)C2=O)c1OCC(=O)O | 1.17%
60 | CCCC(=O)Nc1ccc(S(=O)(=O)Nc2ccc(C)cc2C)cc1 | -1.61%
61 | Cn1c(=O)c2c(nc(NCCCc3ccccc3)n2Cc2ccc(Br)cc2)n(C)c1=O | -3.5%
62 | CCC(C)c1ccc(NC(=O)CSc2nc(C)cc(C)n2)cc1 (stereo not shown) | -2.17%
63 | CC(CCc1ccccc1)NCCCN1CCOCC1 (stereo not shown) | -0.292%
64 | COc1ccc(CCNC(=O)COc2ccc(Cl)cc2C)cc1OC | 1.84%
65 | COc1ccc(CC(=O)Nc2ccccc2OC)cc1 | -0.294%
66 | O=C(CSCC(=O)c1ccccc1)Nc1ccccc1 | -4.43%
67 | O=S(=O)(Nc1cccnc1)c1ccc2ccccc2c1 | 4.06%
68 | Cc1nc(O)c(C(=O)/C=C/c2ccc(Cl)cc2)c2c1CCCC2 | 0.135%
69 | C=CCOc1ccc2oc(-c3ccc(OC)cc3)cc(=O)c2c1 | 6.28%
70 | CCOc1cc(C(=O)N2CCOCC2)cc(OCC)c1OCC | -0.999%
71 | O=C(O)c1ccc(CN2CCOCC2)o1 | 3.42%
72 | CC(C)(C)c1ccc(S(=O)(=O)Nc2ccc(C(=O)Nc3ccncc3)cc2)cc1 | -5.3%
73 | COc1ccc(OC)c(CN(C)C2CCN(C)CC2)c1 | 0.708%
74 | CCOC(=O)c1sc(C)c(C(N)=O)c1N | 3.82%
75 | CC1(C)CC(=O)C2=C(C1)OC(N)=C(C#N)C21CCCCC1 | 4.12%
76 | O=c1c(Cl)c(NCc2ccco2)cnn1C12CC3CC(CC(C3)C1)C2 | 8.63%
77 | O=C(O)COc1ccc(Br)cc1/C=C1\NC(=O)N(Cc2ccc(Cl)cc2)C1=O | 3.6%
78 | CC(CNC(=O)CN(C)c1nnc(N2CCCC2=O)s1)c1ccccc1 (stereo not shown) | -3.43%

Row | SMILES | % Inhibition @ 10 uM
79 | COc1ccc(-c2ccc(C#N)c(SCC(=O)NCc3ccco3)n2)cc1OC | 3.99%
80 | Cc1nc2cc(Br)c(Br)cc2n1-c1ccccc1 | -2.03%
81 | Cc1cc(C)cc(NC(=O)CSc2nc3ccccc3o2)c1 | -8.52%
82 | CC(=O)Nc1cccc(C2=CC(c3ccco3)n3ncnc3N2)c1 (stereo not shown) | 6.97%
83 | CC1=C(C(=O)OCc2ccccc2)C(c2ccsc2)NC(=O)N1C (stereo not shown) | 14.5%
84 | CCN(CC)CCCn1c(C)cc2c(c1=O)C(c1ccc(Cl)cc1)C(C#N)=C(N)O2 (stereo not shown) | -3.14%
85 | O=C(NCCNCCO)c1c(O)nc2c(c1O)CCCC2 | -2.38%
86 | CN1CCN(C2=Cc3ccccc3Sc3cc(F)c(F)cc32)CC1 | -8.83%
87 | CCC(=O)c1ccc(N2CCN(C(=O)c3ccc(F)cc3)CC2)c(F)c1 | -3.45%
88 | O=C(C1=C(O)C(=O)N(CCCN2CCOCC2)C1c1cccnc1)c1cc2ccccc2o1 (stereo not shown) | -13.5%
89 | Cc1cccc(OCC(=O)Nc2ccc(NC(=O)c3cccs3)cc2)c1 | -5.6%
90 | CCOC(=O)N1CCC2(CC1)OC(=O)C(C)=C2C(=O)NCCc1ccc(Cl)cc1 | 1.86%
91 | COc1ccc(CCNC(=O)CN(c2ccc(C)cc2)S(=O)(=O)c2ccccc2)cc1OC | 1.63%
92 | CC(C)NC(=O)Cn1c(=O)sc2ccccc21 | -0.833%
93 | O=C(Cn1cnc2c(nnn2Cc2ccc(F)cc2)c1=O)N1CCCC1 | -3.94%
94 | Cc1cc(C)n(-c2ncnc3sc4c(c23)CCCC4)n1 | -6.68%
95 | Cc1cccc(C)c1NC(=O)C(c1ccccc1)N(C)C(=O)CN1C(=O)c2ccccc2C1=O (stereo not shown) | 17.7%
96 | COc1ccc(CNC(=O)Nc2cccs2)cc1OC | 2.25%
97 | NC(=O)CCC(=O)NC12CC3CC(CC(C3)C1)C2 | -2.6%
98 | Clc1ccc(OCCCCCCN2CCCC2)cc1 | -2.12%
99 | Cc1ccc(NC(=O)c2cc(S(=O)(=O)N3CCCCC3)ccc2Br)cc1 | 1.27%
100 | Cc1ccc(NC(=O)C2(NC(=O)c3ccccn3)CCCCC2)cc1Br | -0.69%
101 | O=C1CN(S(=O)(=O)c2ccccc2)CCN1S(=O)(=O)c1ccccc1 | 60.8%
102 | Cc1ccc(-c2onc(C)c2C)cc1S(=O)(=O)N(C)Cc1ccccc1 | -7.87%
103 | CNC(=O)c1ccc(CS(=O)c2ccccc2C)o1 (stereo not shown) | 5.66%
